Results reported in the supplement of paper PMC4604168 (melanoma cell lines).
Some of the results follow. Single values are uncertain, as repeats are few or missing.

Key:
Assay in all cases: cell count relative to DMSO control; melanoma cells; higher = more viable cells
Details in all cases: library dose: low library concentration; 72 h
[1] = test system: MZ2-MEL
[2] = test system: MeWo
[3] = test system: RPMI7951
[4] = test system: RVH-421
[5] = test system: SkMel28
[6] = test system: SkMel2
[7] = test system: SkMel30
[8] = test system: SkMel5
[9] = test system: UACC257
[10] = test system: UACC62
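Further: cell number obtained by counting DAPI-stained nuclei in high-throughput microscope images with image analysis software, screen run in 1,536-well plates.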

Row | SMILES | cell count [1] | cell count [2] | cell count [3] | cell count [4] | cell count [5] | cell count [6] | cell count [7] | cell count [8] | cell count [9] | cell count [10]
1 | Cn1c(Nc2ccc(C(F)(F)F)cc2)nc2cc(Oc3ccnc(-c4ncc(C(F)(F)F)[nH]4)c3)ccc21 + C[C@@H]1CCN(C(=O)CC#N)C[C@@H]1N(C)c1ncnc2[nH]ccc12 [CP690550] (first compound 0.08 µM, partner dose 1 µM) | 84.3% | 73.6% | 62.6% | 66.8% | 63.3% | 91.7% | 60.5% | 75.7% | 39.8% | 57.2%
2 | Nc1cccc2c1CN(C1CCC(=O)NC1=O)C2=O (stereo not given) [lenalidomide] + Cc1cc(N2CCOCC2)cc2[nH]c(-c3c(NC[C@@H](O)c4cccc(Cl)c4)cc[nH]c3=O)nc12 [BMS536924] (first compound 1 µM, partner dose 0.2 µM) | 97.4% | 88.4% | 95.7% | 85.6% | 87.9% | 84% | 96.8% | 95.2% | 88.1% | 89.2%
3 | Nc1cccc2c1CN(C1CCC(=O)NC1=O)C2=O (stereo not given) [lenalidomide] + NC(=O)Nc1cc(-c2cccc(F)c2)sc1C(=O)N[C@H]1CCCNC1 [AZD7762] (first compound 1 µM, partner dose 0.02 µM) | 108% | 107% | 99.1% | 106% | 112% | 103% | 106% | 97.5% | 107% | 82.5%
4 | O=C(CCCCCCC(=O)Nc1ccccc1)NO [vorinostat] + CN(C)S(=O)(=O)c1ccc2c(c1)/C(=C/c1cc3c([nH]1)CCCC3)C(=O)N2 [SU6656] (first compound 0.08 µM, partner dose 0.4 µM) | 99.8% | 86% | 95.9% | 109% | 82.6% | 105% | 107% | 100% | 106% | 81.2%
5 | OCc1c[nH]c2ccccc12 [Indole-3-carbinol] + N#Cc1c(O)c2c(-c3ccc(-c4ccccc4O)cc3)csc2[nH]c1=O [A769662] (first compound 0.8 µM, partner dose 2 µM) | 95.5% | 113% | 119% | 105% | 106% | 118% | 94.4% | 108% | 117% | 95%
6 | Cn1c(Nc2ccc(C(F)(F)F)cc2)nc2cc(Oc3ccnc(-c4ncc(C(F)(F)F)[nH]4)c3)ccc21 + OCCn1cc(-c2cnc3nnn(Cc4ccc5ncccc5c4)c3n2)cn1 [PF04217903] (first compound 0.08 µM, partner dose 1 µM) | 90.3% | 75.7% | 61.7% | 84.4% | 78.4% | 96% | 42.1% | 83.8% | 64.6% | 67.8%
7 | Clc1ccc(Nc2nnc(Cc3ccncc3)c3ccccc23)cc1 [vatalanib] + OCCn1cc(-c2cnc3nnn(Cc4ccc5ncccc5c4)c3n2)cn1 [PF04217903] (first compound 2 µM, partner dose 1 µM) | 96.5% | 91.7% | 102% | 95.9% | 94.1% | 89.3% | 109% | 85.4% | 92.7% | 97.6%
8 | OCc1c[nH]c2ccccc12 [Indole-3-carbinol] + CO[C@@H]1[C@H](N(C)C(=O)c2ccccc2)C[C@H]2O[C@]1(C)n1c3ccccc3c3c4c(c5c6ccccc6n2c5c31)C(=O)NC4 [Midostaurin] (first compound 0.8 µM, partner dose 0.08 µM) | 85.9% | 76.5% | 81.9% | 81.9% | 94.8% | 85.6% | 84.9% | 96.8% | 68.8% | 97.5%
9 | OCc1c[nH]c2ccccc12 [Indole-3-carbinol] + O=C(O)c1ccc(-c2c[nH]c3ncc(-c4ccccc4)cc23)cc1C1CCCC1 [GSK650394] (first compound 0.8 µM, partner dose 0.16 µM) | 97% | 91.3% | 105% | 120% | 81.1% | 101% | 102% | 89.2% | 107% | 85.1%
10 | OCc1c[nH]c2ccccc12 [Indole-3-carbinol] + CC(C)CCN1c2nc(Nc3cc(F)c(O)c(F)c3)ncc2N(C)C(=O)C1C [BID1870] (first compound 0.8 µM, partner dose 0.2 µM) | 95.1% | 89.9% | 89.9% | 94.4% | 82.9% | 95.8% | 90% | 98.5% | 82.5% | 86.9%
11 | Cn1c(Nc2ccc(C(F)(F)F)cc2)nc2cc(Oc3ccnc(-c4ncc(C(F)(F)F)[nH]4)c3)ccc21 + CC1(C)NC(=O)N(c2ccc([N+](=O)[O-])c(C(F)(F)F)c2)C1=O [nilutamide] (first compound 0.08 µM, partner dose 1 µM) | 68.4% | 61.3% | 61.4% | 58.6% | 74% | 64.3% | 54.3% | 63.4% | 53.1% | 59.2%
12 | COCC[n+]1c2c(n(Cc3cnccn3)c1C)C(=O)c1ccccc1C2=O + CO[C@@H]1[C@H](N(C)C(=O)c2ccccc2)C[C@H]2O[C@]1(C)n1c3ccccc3c3c4c(c5c6ccccc6n2c5c31)C(=O)NC4 [Midostaurin] (first compound 0.0004 µM, partner dose 0.08 µM) | 31.6% | 78.8% | 60.1% | 83.2% | 92.4% | 64.7% | 74.3% | 57.1% | 85.1% | 88.3%
13 | Clc1ccc(Nc2nnc(Cc3ccncc3)c3ccccc23)cc1 [vatalanib] + CN(C)S(=O)(=O)c1ccc2c(c1)/C(=C/c1cc3c([nH]1)CCCC3)C(=O)N2 [SU6656] (first compound 2 µM, partner dose 0.4 µM) | 103% | 87.2% | 100% | 94.9% | 99.7% | 93.3% | 93.7% | 75.4% | 89.5% | 71.4%
14 | OCc1c[nH]c2ccccc12 [Indole-3-carbinol] + CCc1ccc(CCOc2ccc(CC3SC(=O)NC3=O)cc2)nc1 [pioglitazone] (first compound 0.8 µM, partner dose 2 µM) | 94.8% | 96.7% | 82.6% | 76.3% | 90.4% | 92.8% | 90.7% | 86.5% | 77.8% | 88.9%
15 | C#Cc1cccc(Nc2ncnc3cc(OCCOC)c(OCCOC)cc23)c1 [erlotinib] + CC1(C)NC(=O)N(c2ccc([N+](=O)[O-])c(C(F)(F)F)c2)C1=O [nilutamide] (first compound 0.8 µM, partner dose 1 µM) | 93.5% | 84.5% | 96.9% | 94% | 80.2% | 104% | 93.7% | 104% | 75.4% | 88.8%
16 | Nc1cccc2c1CN(C1CCC(=O)NC1=O)C2=O (stereo not given) [lenalidomide] + COc1cc(Nc2ncc(F)c(Nc3ccc4c(n3)NC(=O)C(C)(C)O4)n2)cc(OC)c1OC [Tamatinib] (first compound 1 µM, partner dose 0.4 µM) | 99.6% | 95.9% | 82.6% | 74.4% | 85.1% | 101% | 112% | 84.9% | 71.5% | 71.4%
17 | C#Cc1cccc(Nc2ncnc3cc(OCCOC)c(OCCOC)cc23)c1 [erlotinib] + NC(=O)Nc1cc(-c2cccc(F)c2)sc1C(=O)N[C@H]1CCCNC1 [AZD7762] (first compound 0.8 µM, partner dose 0.02 µM) | 106% | 94.5% | 81% | 131% | 104% | 116% | 73.3% | 120% | 105% | 79.7%
18 | OCc1c[nH]c2ccccc12 [Indole-3-carbinol] + O=C1NC(=O)/C(=C/c2ccc(-c3ccc(F)cc3O)o2)S1 [AS252424] (first compound 0.8 µM, partner dose 1 µM) | 96.9% | 90.8% | 108% | 22.5% | 71.5% | 94.6% | 88.7% | 103% | 83.9% | 102%
19 | C#Cc1cccc(Nc2ncnc3cc(OCCOC)c(OCCOC)cc23)c1 [erlotinib] + Cn1cncc1[C@@](N)(c1ccc(Cl)cc1)c1ccc2c(c1)c(-c1cccc(Cl)c1)cc(=O)n2C [tipifarnib] (first compound 0.8 µM, partner dose 0.01 µM) | 91.2% | 81% | 88.7% | 70.7% | 74.5% | 90.9% | 81.1% | 126% | 55.3% | 56.6%
20 | Clc1ccc(Nc2nnc(Cc3ccncc3)c3ccccc23)cc1 [vatalanib] + c1cc(-c2cnn3cc(-c4ccc(OCCN5CCCCC5)cc4)cnc23)ccn1 [Dorsomorphin] (first compound 2 µM, partner dose 0.4 µM) | 87.2% | 78.2% | 82.5% | 128% | 100% | 91.7% | 95.4% | 79.8% | 87.4% | 86.9%
21 | Nc1cccc2c1CN(C1CCC(=O)NC1=O)C2=O (stereo not given) [lenalidomide] + NCC(=O)Nc1ccc(-n2nc(C(F)(F)F)cc2-c2ccc3c(ccc4ccccc43)c2)cc1 [OSU03012] (first compound 1 µM, partner dose 1 µM) | 92.6% | 57.2% | 106% | 93.9% | 79.2% | 91.7% | 50.6% | 91% | 94.2% | 86.4%
22 | OCc1c[nH]c2ccccc12 [Indole-3-carbinol] + c1cc(-c2cnn3cc(-c4ccc(OCCN5CCCCC5)cc4)cnc23)ccn1 [Dorsomorphin] (first compound 0.8 µM, partner dose 0.4 µM) | 97.4% | 104% | 94% | 97.1% | 95.6% | 115% | 80.1% | 95.4% | 86.1% | 92.8%
23 | OCc1c[nH]c2ccccc12 [Indole-3-carbinol] + Cc1ccc(NC(=O)c2cccc(N(C)C)c2)cc1NC(=O)c1ccc(O)cc1 [ZM336372] (first compound 0.8 µM, partner dose 2 µM) | 84.9% | 97.1% | 81.9% | 116% | 112% | 101% | 96.3% | 102% | 80.7% | 91.8%
